In the test the target is T1, EGFP-HS1BP3 WT (UniProt Q53T59).
T1 sequence: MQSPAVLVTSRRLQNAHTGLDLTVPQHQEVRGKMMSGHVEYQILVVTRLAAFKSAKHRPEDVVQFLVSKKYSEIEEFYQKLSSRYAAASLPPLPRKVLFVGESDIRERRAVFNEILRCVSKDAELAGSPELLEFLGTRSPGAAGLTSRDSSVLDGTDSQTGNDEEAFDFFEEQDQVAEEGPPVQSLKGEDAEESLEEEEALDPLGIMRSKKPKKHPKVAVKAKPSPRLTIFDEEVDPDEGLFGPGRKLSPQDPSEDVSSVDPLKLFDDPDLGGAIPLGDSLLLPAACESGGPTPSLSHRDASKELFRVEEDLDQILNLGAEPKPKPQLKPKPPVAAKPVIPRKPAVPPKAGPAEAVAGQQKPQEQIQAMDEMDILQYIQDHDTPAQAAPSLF
In words: co-IP; GFP-Trap agarose beads, at least 450 ug MKN-74 lysate in RIPA buffer, 2.5 h, four washes in RIPA buffer, immunoblot; for TKS5-EGFP in MKN-74 WT and HS1BP3 KO cells. In general terms: Immunoblotting shows a protein as a band on a membrane.

Chains of the proteins cited; added tags and fusions are not shown.
UniProt Q14247: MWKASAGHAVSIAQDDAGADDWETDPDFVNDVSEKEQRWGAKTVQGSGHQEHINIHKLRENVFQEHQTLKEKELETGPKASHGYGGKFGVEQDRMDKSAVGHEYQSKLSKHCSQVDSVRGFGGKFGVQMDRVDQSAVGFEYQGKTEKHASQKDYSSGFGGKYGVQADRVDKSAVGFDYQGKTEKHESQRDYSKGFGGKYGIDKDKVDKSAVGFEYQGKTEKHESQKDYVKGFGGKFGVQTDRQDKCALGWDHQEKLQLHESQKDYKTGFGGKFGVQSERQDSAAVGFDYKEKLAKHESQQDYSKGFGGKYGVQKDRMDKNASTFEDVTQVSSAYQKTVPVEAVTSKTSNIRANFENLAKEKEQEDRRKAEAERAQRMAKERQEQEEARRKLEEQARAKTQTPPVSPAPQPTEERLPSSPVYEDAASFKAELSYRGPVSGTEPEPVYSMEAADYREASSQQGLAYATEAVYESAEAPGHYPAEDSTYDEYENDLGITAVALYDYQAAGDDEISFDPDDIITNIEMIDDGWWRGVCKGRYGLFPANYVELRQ

No constants are given. Whether binding was seen depends on the method and setting. In cells and extracts the contact can be indirect. Some binding calls cover weakened binding; strength is not graded here. Tags and fused reporters may be left off the sequences shown.

Regarding “cortactin (CTTN), endogenous in MKN-74 cells (from UniProt Q14247 1-550)”, the binding entry was “binds”.

These data come from paper PMC13399123.
